{"source": "PubChem BioAssay AID1362", "about": "(SRMLSC, 2008)", "note": "This is one part of the list. These are further read-outs of the screen, such as a control signal, another cell line or another target. No call is given for them. Most of these compounds were active or inconclusive in the main read-out, so they are no random draw."}
{"experiment": "growth inhibition of WT strain, primary screen, mitochondrial fusion inhibitor project, WT and mutant strains, chemical genetic (AID 1362); note: tested in S. cerevisiae", "conditions": "mitochondrial fusion phenotypic screen, at 10 µM", "units": {"inhibition": "%"}}
{"smiles": "CN(Cc1ccc(F)cc1)C(=O)COc1ccccc1-c1ccccc1", "inhibition": 21.1}
{"smiles": "Cc1ccc(C)c(Nc2ncccc2C(=O)NCc2cccs2)c1", "inhibition": 21.7}
{"smiles": "NC(=O)c1ccsc1NC(=O)c1ccc2c(c1)CCCC2", "inhibition": 69.5}
{"smiles": "CCOC(=O)c1sc(/N=C/c2c(C)[nH]n(-c3ccccc3)c2=O)c(C#N)c1C", "inhibition": 8.93}
{"smiles": "O=[N+]([O-])c1cc([N+](=O)[O-])c(N2CCCCCC2)cc1NCCO", "inhibition": 42.8}
{"smiles": "CCOC(=O)c1c(-c2ccc(C)cc2)csc1NC(=O)C1CCCO1", "note": "(stereo not given)", "inhibition": 6.27}
{"smiles": "CC(C)(C)SCCNC(=O)c1ccc(Cl)c([N+](=O)[O-])c1", "inhibition": 57.2}
{"smiles": "COc1ccc(C2SCC(=O)N2CC23CC4CC(CC(C4)C2)C3)cc1", "note": "(stereo not given)", "inhibition": 40.7}
{"smiles": "O=C(c1ccc(COc2ccc(Cl)cc2)o1)N1CCN(Cc2ccc3c(c2)OCO3)CC1", "inhibition": 58}
{"smiles": "Cc1ccc2nc(-c3ccccc3)c(-c3ccccc3)nc2c1", "inhibition": 42.9}
{"smiles": "CN(CCCC(=O)NCc1ccco1)S(=O)(=O)c1ccccc1", "inhibition": 13.4}
{"smiles": "Cc1ccc(NC(=S)NCCSc2ccc(Cl)cc2)c(C)c1", "inhibition": 39.6}
{"smiles": "CCOC(=O)C1CCCN(C(=O)CS(=O)(=O)Cc2ccccc2)C1", "note": "(stereo not given)", "inhibition": -16.8}
{"smiles": "CCOc1ccc(-n2cc(C(=O)c3cc(Cl)ccc3O)cc(C#N)c2=O)cc1", "inhibition": 31.8}
{"smiles": "CCCCN1C2=C(C(=O)CCC2)C(c2ccc(Cl)c(Cl)c2)C2=C1c1ccccc1C2=O", "note": "(stereo not given)", "inhibition": 35.6}
{"smiles": "COC(=O)C1CSc2[nH]c(=O)sc2C1c1ccc(OC)c(OC)c1", "note": "(stereo not given)", "inhibition": 16.2}
{"smiles": "CN(C(=S)Nc1ccc(Oc2ccccc2)cc1)C1CCCCC1", "inhibition": 53.9}
{"smiles": "Cc1cc(C)cc(NC(=S)Nc2cccc3cnccc23)c1", "inhibition": 0.75}
{"smiles": "CC(C)(C)c1cc(OC(=O)c2ccccc2F)ccc1O", "inhibition": 29.9}
{"smiles": "CCN1CCc2c(sc(NC(=O)Nc3ccc(Cl)c(Cl)c3)c2C(N)=O)C1", "inhibition": 29.4}
{"smiles": "O=C(NC(=S)Nc1ccccc1N1CCCCC1)c1ccco1", "inhibition": 22.6}
{"smiles": "CCOC(=O)COc1ccccc1/C=C\\[N+](=O)[O-]", "inhibition": 37.9}
{"smiles": "Cc1ccc(-c2cc(C(=O)N3N=C(C(F)F)CC3(O)C(F)F)c3ccccc3n2)cc1C", "note": "(stereo not given)", "inhibition": 86.3}
{"smiles": "O=C(NCC1CCCO1)C1CCC(=O)N1Cc1ccccc1Cl", "note": "(stereo not given)", "inhibition": 10.2}
{"smiles": "CC(C)N(Cc1nc(-c2ccccc2)no1)C(=O)C(Cl)(Cl)Cl", "inhibition": 43.5}
{"smiles": "O=C1C=C(Nc2ccc(Cl)cc2)CC(c2ccc(Cl)cc2)C1", "note": "(stereo not given)", "inhibition": 38}
{"smiles": "N#C/C(=C\\Nc1ccccc1O)c1nc2ccccc2o1", "inhibition": 29.2}
{"smiles": "Cc1ccc(Oc2cc([N+](=O)[O-])cc3c2C(=O)Nc2ccccc2O3)cc1", "inhibition": 20.2}
{"smiles": "Cc1cc(C)c(OCC(=O)Nc2nnc(-c3ccco3)o2)c(C)c1", "inhibition": 4.48}
{"smiles": "O=C(O)CCc1ccc(-c2ccc(F)cc2)n1Cc1ccco1", "inhibition": 3.57}
{"smiles": "Cc1ccc2nc(NC(=O)C3CCCN(S(=O)(=O)c4cccc5nsnc45)C3)sc2c1", "note": "(stereo not given)", "inhibition": 27.9}
{"smiles": "CCn1ccnc1CN1CCc2c([nH]c3ccccc23)C1C1CCCCC1", "note": "(stereo not given)", "inhibition": 13.4}
{"smiles": "CCn1c(C(=O)N2CCc3ccccc3C2)cc2oc3ccccc3c21", "inhibition": 26.8}
{"smiles": "CC(C)(C)NC(=S)Nc1ccc(Nc2ccccc2)cc1", "inhibition": 34}
{"smiles": "Cc1ccnc(Nc2nc(-c3c(C)nc4sccn34)cs2)c1", "inhibition": 74.4}
{"smiles": "Brc1ccccc1/C=N/Nc1ccc2ccccc2n1", "inhibition": 51.4}
{"smiles": "Cc1ccc(C2(c3ccc(C)cc3)CC2C(=O)Nc2ccc([N+](=O)[O-])cc2O)cc1", "note": "(stereo not given)", "inhibition": 75.7}
{"smiles": "C[C@@H](C[C@@H](O)[C@H](O)C(C)(C)O)[C@@H]1CC[C@]2(C)C3=CC[C@H]4C(C)(C)C(=O)CC[C@]4(C)[C@H]3CC[C@@]12C", "inhibition": -20}
{"smiles": "Cc1noc(C)c1S(=O)(=O)N(CCc1ccccc1)Cc1ccccc1", "inhibition": 19.7}
{"smiles": "CCC(C)c1ccc(NC(=S)NCc2ccccc2OC)cc1", "note": "(stereo not given)", "inhibition": 47.2}
{"smiles": "Cc1cc(NC(=S)Nc2ccc(C)c(Cl)c2)n[nH]1", "inhibition": 71}
{"smiles": "COc1cccc(-c2nc(N3CCCCC3C)c3ccccc3n2)c1O", "note": "(stereo not given)", "inhibition": 31.4}
{"smiles": "O=C1CCCCC1C(Nc1ccc(Br)cc1)c1ccccc1", "note": "(stereo not given)", "inhibition": -3.07}
{"smiles": "C=CCNC1=C(Cl)C(=O)N(c2cccc(Cl)c2Cl)C1=O", "inhibition": 2.59}
{"smiles": "O=[N+]([O-])c1cccc(-c2csc(N/N=C/c3cccc(O)c3)n2)c1", "inhibition": 63.8}
{"smiles": "Oc1ccccc1/C=N/Nc1cc(N2CCCC2)nc(N2CCCC2)n1", "inhibition": 38.8}
{"smiles": "Cc1cc(NCCCn2ccnc2)n2nc(C)c(-c3ccc(Cl)cc3)c2n1", "inhibition": 25.3}
{"smiles": "C=CCn1c(-c2cc3c(s2)CCC(CC)C3)n[nH]c1=S", "note": "(stereo not given)", "inhibition": 48.9}
{"smiles": "N/C(=N\\OC(=O)c1cccc2ccccc12)c1ccc(Br)cc1", "inhibition": 64.1}
{"smiles": "N/C(=N\\OC(=O)C(c1ccccc1)c1ccccc1)c1cccnc1", "inhibition": 67.7}
{"smiles": "COc1nc(SC)nc(Cl)c1Cc1ccc(OC(C)C)cc1", "inhibition": -9.54}
{"smiles": "CC(=O)/C(=C/Nc1ccc(Oc2ccccc2)cc1)c1ccccc1", "inhibition": 33.9}
{"smiles": "Cc1cccc(NC(=O)c2ccc(COc3ccc(Cl)cc3Cl)o2)n1", "inhibition": 34.4}
{"smiles": "CC(C)(c1ccccc1)c1ccc(OCCCNCCO)cc1", "inhibition": 85.1}
{"smiles": "O=C(c1ccc2c(c1)OCO2)N(Cc1ccco1)C1(C(=O)NC2CCCCC2)CCCCC1", "inhibition": 7.04}
{"smiles": "c1csc(-c2csc3nc(CN4CCOCC4)nc(NCc4ccc5c(c4)OCO5)c23)c1", "inhibition": 23.8}
{"smiles": "CCOC(=O)c1cnc(SC)nc1Sc1ccccc1Cl", "inhibition": 23.2}
{"smiles": "O=C1C=CC(=O)N1CCNc1ncc(C(F)(F)F)cc1Cl", "inhibition": 95.1}
{"smiles": "FC(F)(F)c1ccc(CSc2nccn2-c2ccccc2)cc1", "inhibition": 51.8}
{"smiles": "Cc1ccc(Cl)cc1N1CCN(Cc2nnnn2C2CCCCC2)CC1", "inhibition": 36.1}
{"smiles": "CC1(C)CC(=O)C(C=Nc2ccc3[nH]ncc3c2)=C(O)C1", "inhibition": 34}
{"smiles": "CN(Cc1ccccc1)c1nc(CN2CCOCC2)nc2scc(-c3ccccc3)c12", "inhibition": 36.7}
{"smiles": "Cc1ccc(CN=c2c([N+](=O)[O-])nn(-c3cccc(Cl)c3)n2O)cc1", "inhibition": 58.9}
{"smiles": "CCOC(=O)C1=C(C)NC(SC(C)=O)=NC1c1ccc(OC(C)=O)c(OC)c1", "note": "(stereo not given)", "inhibition": 21.4}
{"smiles": "Cc1ccc(C2CCN(C(=S)Nc3cccc(C)c3)C2)cc1", "note": "(stereo not given)", "inhibition": 59.9}
{"smiles": "Cc1cc(-c2ccccc2)nc(-c2ccccc2)c1C", "inhibition": 52.2}
{"smiles": "O=C(Nc1cc(Cl)cc(Cl)c1)C(c1ccccc1)N1CCCCC1", "note": "(stereo not given)", "inhibition": 24.3}
{"smiles": "O=C1NCCc2c1[nH]c1c(Cl)ccc(Cl)c21", "inhibition": 4.49}
{"smiles": "CCc1nc(SCc2nc3ccccc3[nH]2)c2oc3ccccc3c2n1", "inhibition": 73.9}
{"smiles": "COc1ccc(NC(=S)NCCSc2ccc(Cl)cc2)c(OC)c1", "inhibition": 50.1}
